The target in one data set is human GLP-1 receptor (human, UniProt P43220 24-463). The data set can be described thus: cell-based or functional assay.
Data set [1] addresses human GLP-1 receptor (hGLP-1R) (Homo sapiens, UniProt P43220). Conditions: hGLP-1R activation, in words.
The nature of data set [2]: Stability in rat serum in vitro, read as remaining activity in activating hGLP-1R. The data set is classed as in vitro ADME. Conditions: for Stability in rat serum in vitro compared with positive control L1: in words; for Decrease in activity after 7 days of incubation in serum: rat serum, 37° C., activity at 0.03 nM, day 0 as 100%. The source says:
The decay rate of protein activity indirectly reflects the stability of the protein in the serum.

The next data set concerns Male C57BL/KsJ mice. The data set can be described thus: Intraperitoneal glucose tolerance test (IPGTT) after a single s.c. dose. The data set is classed as in vivo. How it is done:
Male C57BL/KsJ mice of 6 weeks old are randomized into a vehicle control group, a positive drug group and a test protein group according to body weights and blood glucose levels, and are subcutaneously (s.c.) injected with corresponding drugs. An intraperitoneal glucose tolerance test (IPGTT) is performed after dosing for a period of time following the steps as follows: fast the mice for 6 h, collect blood samples from tail veins of the mice in each group before the test, measure the blood glucose levels with a Roche ACCU-CHEK blood glucose meter and record the results at a −60 min time point; measure blood glucose levels again at 0 min in each group before intraperitoneally injecting 2 g/kg glucose (body weight), afterwards measure and record blood glucose levels of mice in each group at 15 min, 30 min, 60 min and 120 min. An IPGTT curve is plotted based on the blood glucose levels to calculate the areas under curve (AUC0-120 min (mM*min)), and the differences are statistically analyzed using the t-test.

Sequence of human GLP-1 receptor (hGLP-1R) (P43220 24-463): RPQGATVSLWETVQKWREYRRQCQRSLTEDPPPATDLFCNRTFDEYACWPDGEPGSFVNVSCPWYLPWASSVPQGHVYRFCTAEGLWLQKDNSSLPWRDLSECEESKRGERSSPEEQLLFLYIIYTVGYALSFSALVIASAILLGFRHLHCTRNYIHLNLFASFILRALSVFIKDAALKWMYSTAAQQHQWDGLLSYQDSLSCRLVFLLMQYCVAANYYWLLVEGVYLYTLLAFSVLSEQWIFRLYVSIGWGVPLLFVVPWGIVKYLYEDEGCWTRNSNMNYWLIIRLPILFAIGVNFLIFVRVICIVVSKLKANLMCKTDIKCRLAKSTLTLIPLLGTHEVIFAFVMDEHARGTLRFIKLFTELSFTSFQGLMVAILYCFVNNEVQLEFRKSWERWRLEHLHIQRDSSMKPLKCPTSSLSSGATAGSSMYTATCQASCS

B1: recombinant protein L1-mu (Fc fusion)
chain: HGEGTFTSDVSSYLEEQAAKEFIAWLVRGAGGGGGSGGGGSGGGGSA[human IgG4 Fc with S228P F234A L235A (EU numbers) left out]
In the case of B1, the “EC50 (pM) of Activity to Activate (hGLP-1R; CRE-NanoLuc luciferase reporter in AD293 cells, concentration by monomer molecular weight)” value (“EC50 (pM) of Activity to Activate” below) with human GLP-1 receptor was found to be 83.6 pM.

B2: recombinant protein self-L1 (Fc fusion)
chain: GNYTCEVTELTREGETIIELKGGGGGHGEGTFTSDVSSYLEEQAAKEFIAWLVKGGGGGGGSGGGGSGGGGSA[human IgG4 Fc with S228P F234A L235A (EU numbers) left out]
Turning to B2, the “EC50 (pM) of Activity to Activate” value with human GLP-1 receptor came out at 24300 pM.

B3: self-L1: SEQ ID NO.: 14; self polypeptide (CD47 signal) introduced into the N-terminal of the L1 protein; tetramer (protein)
chain: GNYTCEVTELTREGETIIELKGGGGGHGEGTFTSDVSSYLEEQAAKEFIAWLVKGGGGGGGSGGGGSGGGGSA[human IgG4 Fc with S228P F234A L235A (EU numbers) left out]
modifications: tetramer; Recombinant protein self-L1
Consider B3, for which the “Cellular activity compared with the L1 protein” value in data set [1] is “decreased”.

B4: recombinant protein L1-self-mu (Fc fusion)
chain: HGEGTFTSDVSSYLEEQAAKEFIAWLVRGAGGGGGSGGGGSGGGGSA[human IgG4 Fc with S228P F234A L235A (EU numbers) left out]GGGGGNYTCEVTELTREGETIIELK
For the molecule B4, the “EC50 (pM) of Activity to Activate” value with human GLP-1 receptor was 16.9 pM.

B5: recombinant protein L1-self (Fc fusion)
chain: HGEGTFTSDVSSYLEEQAAKEFIAWLVKGGGGGGGSGGGGSGGGGSA[human IgG4 Fc with S228P F234A L235A (EU numbers) left out]GGGGGNYTCEVTELTREGETIIELK
As for B5, in the data set with human GLP-1 receptor, the “EC50 (pM) of Activity to Activate” value stood at 45.6 pM.

B6: L1-self-mu: SEQ ID NO.: 15; self polypeptide introduced into the C-terminal of the recombinant protein L1-mu; tetramer (protein)
chain: HGEGTFTSDVSSYLEEQAAKEFIAWLVRGAGGGGGSGGGGSGGGGSA[human IgG4 Fc with S228P F234A L235A (EU numbers) left out]GGGGGNYTCEVTELTREGETIIELK
modifications: tetramer; Recombinant protein L1-self-mu
notes: self polypeptide introduced into the C-terminal of the recombinant protein L1-mu; tetramer
Regarding B6, in data set [2], the “Stability in rat serum in vitro compared with positive control L1” value is given as “much more stable than the positive control L1” and the “Decrease in activity after 7 days of incubation in serum” value came out at 29.9%. The “Cellular activity compared with the L1 protein” value in data set [1] was “enhanced, higher than that of the L1 protein”. For the same molecule, the “Hypoglycemic duration in animals” value in the data set on Male C57BL/KsJ mice (in words, comparison between proteins) is given as “longer hypoglycemic duration than the L1”. In the data set with Male C57BL/KsJ mice (seven days after a single dose, s.c. 30 nmol/kg, IPGTT AUC0-120 min), the “Decrease of area under curve (AUC) in blood glucose vs solvent control group” value amounted to 20%. Moreover, the “Hypoglycemic activity (AUC) ten days post-dose” value in the data set on Male C57BL/KsJ mice (ten days after a single dose, s.c. 30 nmol/kg, IPGTT) is on record as “significant hypoglycemic activity is still observed”.

B7: L1-self: SEQ ID NO.: 13; self polypeptide (CD47 signal) introduced into the C-terminal of the L1 protein; tetramer (protein)
chain: HGEGTFTSDVSSYLEEQAAKEFIAWLVKGGGGGGGSGGGGSGGGGSA[human IgG4 Fc with S228P F234A L235A (EU numbers) left out]GGGGGNYTCEVTELTREGETIIELK
modifications: tetramer; Recombinant protein L1-self
notes: self polypeptide (CD47 signal) introduced into the C-terminal of the L1 protein; tetramer
Consider B7, for which, in data set [2], the “Stability in rat serum in vitro compared with positive control L1” value was “much more stable than the positive control L1” and the “Decrease in activity after 7 days of incubation in serum” value is on record as 27.8%. Also, in data set [1], the “Cellular activity compared with the L1 protein” value was “no significant improvement”.

These data come from patent US20210253662A1, “Long-Acting Recombinant GLP1-Fc-CD47 Protein and Preparation and Use Thereof” (ZHEJIANG PALO ALTO PHARMACEUTICALS, INC, priority 2018, published 2021).
